Some of the results follow.
B1: chr8:29963340:29963341:+_ENSG00000104660_ENST00000321250|hu_hu|motif|central (ssRNA)
RNA: GGGAGUUCUACAGUCCGACGAUCUUUUCACCACUGCUGCCAGCUGAAGUCGUCAUUGCUUCCAAAGACCAAGAAAAAGCCGGGUAUAGUUGCAAAGAUGACUGUGUUUCCUGUGAGAACAAGUGCACAAGCUCCCCACUCAAUCAACAGAGGAUUGAGCAUCA
B2: 72613626_72632935_896_3pUTR_ENSG00000137478_ENST00000311172|human|control|control (ssRNA)
RNA: GGGAGUUCUACAGUCCGACGAUCUUUGUGAAAUACAGCGUUUUCUUGCAAAAACAGCUGAAGAUUGUAGUCCCGGACCACCUUGCUGGAGUUUUCUAAUAAAAACUGGAAUGUGUUCUGCACAGCUUGGCAUGUUUCUAGCUCCAACAGAGGAUUGAGCAUCA
B3: chr10:127947519:127947520:-_ENSMUSG00000025366_ENSMUST00000026427|mus_hu|FALSE|FALSE (ssRNA)
RNA: GGGAGUUCUACAGUCCGACGAUCGCUCAGGUCCCCGCCCCAGGGGCCCAGAAGGAUAAAGGCCGUGCAGUAAAGGGAACAUACGGUUCUUCUCUUUGGUCAGGCAAAGGCCCGAAUAUGGGCCUGUUAGGUGAAAGGGCUGAACAACAGAGGAUUGAGCAUCA
B4: chr5:139702750:139702751:+_ENSMUSG00000036817_ENSMUST00000110883|mus_hu|FALSE|FALSE (ssRNA)
RNA: GGGAGUUCUACAGUCCGACGAUCUCUCGACACGGGCCCGGGGGCCGCGGGGUGCGCCGUGAGCACGUCCUUGCGCUCGGACAGCAUGCUGCAGUUGCUGCAGGAGAAGCCGUUGUGCGCGGUGGCGGCGGCGGCUCCCACAUCCAACAGAGGAUUGAGCAUCA
B5: chr16:69481128:69481129:+_ENSG00000103018_ENST00000515314|hu_hu|FALSE|FALSE (ssRNA)
RNA: GGGAGUUCUACAGUCCGACGAUCCAACGGAUGGAUAUCACCAAUGUAGUACUGCUUUAGCAUUUCUCUGGCAUCAGAAGAGUGUCCUACAUCUUCAAAGCUUUCACUUGCAUCUACACCAGCUUGUUCCAGCAGAACCUCUUCCAACAGAGGAUUGAGCAUCA
B6: chr11:114320625:114320626:+_ENSG00000076043_ENST00000544827|hu_hu|FALSE|FALSE (ssRNA)
RNA: GGGAGUUCUACAGUCCGACGAUCAACUCACGGUCUUCUCAUUUUCCCCAUUUUCUAUAAUUUUCCUCUUCUUUUCAUCUAUUUUUUUCUUGAAGAUGUUAUUUCGGUAAAACUGAAGCUCUUUGAUGCUUUCACUAAUGUCAUCAACAGAGGAUUGAGCAUCA
B7: 76463319_76463439_2648_CDS_ENSMUSG00000059323_ENSMUST00000168185|mouse|control|control (ssRNA)
RNA: GGGAGUUCUACAGUCCGACGAUCACCAUCAAGACUUGUCAGGCGACUCUGCUUGACACGGGUCCGGGGCCUUGCAGGACAUCGCUCAUAGUCUGACACCGAGGUGCUGGGCCUGCCGCUGCGGGUCAGAGGUGUAUCUACCUCCAACAGAGGAUUGAGCAUCA
B8: chr7:141438946:141438947:+_ENSG00000106028_ENST00000265304|hu_mus|hu_hu_hu_mus_True|58_88 (ssRNA)
RNA: GGGAGUUCUACAGUCCGACGAUCGACGAAAUACCUGUAACACAGGUGAAACAUGGCUGGCUUCUGUUUUUCUUACAGUCUAAUCUUUAGGCUUUUCCUAAAGGAAAGAAAGAAAAGAGAAAAAUGAUAAAUCAAGAAACUACACAACAGAGGAUUGAGCAUCA
B9: chrX:51640900:51640901:+_ENSG00000179222_ENST00000326587|hu_hu|FALSE|FALSE (ssRNA)
RNA: GGGAGUUCUACAGUCCGACGAUCGGGGGUACUGAUGAGAAUAUACAGGUGUUCUUCUUUGUCAAUUUCUUUCAGUUGAAUCCCAAAUUUCUUCUCUAGGACAAAGCAUGCACGUUCAAUGAUUUCUGGAUAAACAUCAGUGUACAACAGAGGAUUGAGCAUCA
B10: chr3:39121231:39121232:+_ENSG00000114742_ENST00000302313|hu_mus|FALSE|FALSE (ssRNA)
RNA: GGGAGUUCUACAGUCCGACGAUCAUUCGUAUCUUUGGUUAAUAUGUGUCGCUUGUCAUUUAGGAUGUGGCACUGAAUAAUACUAGCGCCCCCUUUAAUAACUUGGUCGGGCUGUGUGCAGAGGGGCGUUAUGGGGUUUGUACACAACAGAGGAUUGAGCAUCA
B11: 126588468_126592375_426_3pUTR_ENSMUSG00000042446_ENSMUST00000135003|mouse|control|control (ssRNA)
RNA: GGGAGUUCUACAGUCCGACGAUCUUACUGGUGGUACUAUUUUCAAACUGGGCACUGAUCACAUCCUUUGGAUUUAAAAUGUCUUUUGAGCAACUUGAACAAGUCUUCUUGGUGAGGGGAGGCGGUGGGCGGGCAGGUGGAACUCAACAGAGGAUUGAGCAUCA
B12: chr15:25616465:25616466:-_ENSG00000114062_ENST00000438097|hu_mus|motif|central (ssRNA)
RNA: GGGAGUUCUACAGUCCGACGAUCAGCUUUGCAAAAUAAUGGCAACGCCAUUUCCAGAUAUUCAGGACUGUGGAGAUUACGGUUCUCCAUUACAAUAAUGAACAAAUUGAGAUAAUUAGGAUCUCGAGUAUACACAUUAUGAUACAACAGAGGAUUGAGCAUCA
B13: 105362805_105362925_2386_CDS_ENSG00000107957_ENST00000369774|human|control|control (ssRNA)
RNA: GGGAGUUCUACAGUCCGACGAUCAGCAGAGCGGGGCUUCAGGUCGCCACUGGUUUUGGACAAGGAAGAGGAGGAGGAGGAAGAGGAGGAGCAGCAAGUGGUGUUGAUGGUGAUGGAUGAGGAAAAGGAGGCUGAGGAGUGGUUCAACAGAGGAUUGAGCAUCA
B14: 119525768_119544910_3349_CDS_ENSMUSG00000030172_ENSMUST00000032279|mouse|control|control (ssRNA)
RNA: GGGAGUUCUACAGUCCGACGAUCCUCGUUCUGAAGCUGCUCCUGAGUCAUCUUCUGCAGCUCAUUCUCCCAAGCUGCCUGCUCACCAUCUGCAUUAUAAGAAGCUGGUGGAGUGAGUCCACGGAGGAUUAAGGGGUCUCGGUCCAACAGAGGAUUGAGCAUCA

biological target: T1, UNK ZnF1-3 (human, UniProt Q9C0B0 31-174); experiment: nsRBNS (natural sequence RNA bind-n-seq); RBNS binding buffer (assumed for nsRBNS): 25 mM Tris pH 7.5, 150 mM KCl, 3 mM MgCl2, 0.01% Triton X-100, 500 ug/ml BSA, 20 U/ml SUPERase-In, 4 C; UNK is unkempt and MSI1 is Musashi-1; names of the RNAs are library labels; protein concentration not given here; high values mean tight binding
T1 sequence: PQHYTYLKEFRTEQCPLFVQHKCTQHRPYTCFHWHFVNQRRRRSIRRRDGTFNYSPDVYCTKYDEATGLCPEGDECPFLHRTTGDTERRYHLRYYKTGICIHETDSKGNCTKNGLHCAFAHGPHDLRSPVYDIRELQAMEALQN

Binder | binding signal [enrichment R]
B1 | 1.47
B2 | 0.77
B3 | 1.11
B4 | 0.417
B5 | 0.957
B6 | 0.413
B7 | 0.485
B8 | 0.847
B9 | 1.12
B10 | 0.541
B11 | 1.07
B12 | 0.807
B13 | 2.56
B14 | 1

Source: article PMC12136788
